These results are taken from the supplement of paper PMC12217912.

First the molecules themselves.
B1: TEV protease; numbered along this chain (parent)
chain: MGESLFKGPRDYNPISSSICHLTNESDGHTTSLYGIGFGPFIITNKHLFRRNNGTLVVQSLHGVFKVKDTTTLQQHLVDGRDMIIIRMPKDFPPFPQKLKFREPQREERICLVTTNFQTKSMSSMVSDTSCTFPSGDGIFWKHWIQTKDGQCGSPLVSTRDGFIVGIHSASNFTNTNNYFTSVPKNFMELLTNQEAQQWVSGWRLNADSVLWGGHKVFMVKPEEPFQPVKEATQL

The list shows a part of the results. The full chains were built here from the parent and the listed change. Values near 0.05 are background.

In the experiment the parent is B1. The experiment is described as follows: raw area under fraction-flipped curve 0-4 h after induction (AUC4h, not background-subtracted), DNA-recorder readout of cleavage of the substrate (dimensionless); higher = more cleavage of the substrate by the protease variant. Conditions: temperature: 34 °C; time window: 0-4 h after rhamnose induction. The protocol:
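In vivo DNA recorder in E. coli TOP10(DE3) ΔrhaA at 34 °C. Each TEVp single-site mutant (parent TEVp 0) is paired with a single-site variant of the 7-mer TEVs (canonical ENLYFQ|S). The substrate sits between flexible linkers in a Bxb1-sfGFP-TEVs-SsrA fusion, so cleavage stabilises Bxb1 and speeds flipping of a recombination array, read by NGS. The value is the raw area under the fraction-flipped curve over 0-4 h after rhamnose induction (AUC4h), with ≥20 reads per time point. It is not background-subtracted; inactive controls average about 0.047.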
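Further: Bxb1 expression induced with 0.2% (w/v) L-rhamnose at OD600 near 0.5, cultures sampled hourly, flipped fraction per protease–substrate barcode pair counted by paired-end Illumina sequencing.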

As for MGESLFKGPRDYNPISSSICHLTNESDGHTTSLYGIGFGPFIITNKHLFRRNNGTLVVQSLHGVFKVKDTTTLQQHLVDGSDMIIIRMPKDFPPFPQKLKFREPQREERICLVTTNFQTKSMSSMVSDTSCTFPSGDGIFWKHWIQTKDGQCGSPLVSTRDGFIVGIHSASNFTNTNNYFTSVPKNFMELLTNQEAQQWVSGWRLNADSVLWGGHKVFMVKPEEPFQPVKEATQL [R81S], the “area with substrate ENLYCQS” value came out at 0.0554, the “area with substrate ENLYDQS” value turned out to be 0.0456, the “area with substrate ENLYEQS” value came to 0.0616 and the “area with substrate ENLYGQS” value amounted to 0.0568. Also, the “area with substrate ENLYHQS” value was determined as 0.0665, the “area with substrate ENLYIQS” value worked out at 0.054, the “area with substrate ENLYNQS” value was 0.0692 and the “area with substrate ENLYQQS” value was 0.0543. Further, the “area with substrate ENLYRQS” value is 0.0451 and the “area with substrate ENLYYQS” value amounted to 0.0569.
Consider MGESLFKGPRDYNPISSSICHLTNESDGHTTSLYGIGFGPFIITNKHLFRRNNGTLVVQSLHGVFKVKDTTTLQQHLVDGWDMIIIRMPKDFPPFPQKLKFREPQREERICLVTTNFQTKSMSSMVSDTSCTFPSGDGIFWKHWIQTKDGQCGSPLVSTRDGFIVGIHSASNFTNTNNYFTSVPKNFMELLTNQEAQQWVSGWRLNADSVLWGGHKVFMVKPEEPFQPVKEATQL [R81W], for which the “area with substrate ENLYCQS” value worked out at 0.0577, the “area with substrate ENLYDQS” value worked out at 0.0481, the “area with substrate ENLYGQS” value turned out to be 0.0237 and the “area with substrate ENLYHQS” value came to 0.0628. Further, the “area with substrate ENLYKQS” value worked out at 0.0687, the “area with substrate ENLYMQS” value stood at 0.0578, the “area with substrate ENLYNQS” value stood at 0.0563 and the “area with substrate ENLYPQS” value was 0.0647. Besides, the “area with substrate ENLYQQS” value was 0.0736, the “area with substrate ENLYSQS” value came to 0.0551, the “area with substrate ENLYVQS” value stood at 0.0872 and the “area with substrate ENLYYQS” value worked out at 0.0497.
On to MGESLFKGPRDYNPISSSICHLTNESDGHTTSLYGIGHGPFIITNKHLFRRNNGTLVVQSLHGVFKVKDTTTLQQHLVDGRDMIIIRMPKDFPPFPQKLKFREPQREERICLVTTNFQTKSMSSMVSDTSCTFPSGDGIFWKHWIQTKDGQCGSPLVSTRDGFIVGIHSASNFTNTNNYFTSVPKNFMELLTNQEAQQWVSGWRLNADSVLWGGHKVFMVKPEEPFQPVKEATQL [F38H], for which the “area with substrate ENLYCQS” value stood at 0.0901, the “area with substrate ENLYDQS” value turned out to be 0.049, the “area with substrate ENLYEQS” value was found to be 0.0615 and the “area with substrate ENLYGQS” value is 0.0744. Besides, the “area with substrate ENLYHQS” value came to 0.0755, the “area with substrate ENLYIQS” value was found to be 0.121, the “area with substrate ENLYKQS” value amounted to 0.048 and the “area with substrate ENLYMQS” value is 0.0872. The “area with substrate ENLYNQS” value was 0.0656, the “area with substrate ENLYRQS” value came to 0.0696, the “area with substrate ENLYTQS” value was determined as 0.0811 and the “area with substrate ENLYWQS” value is 0.0853. Besides, the “area with substrate ENLYYQS” value worked out at 0.061.
Take MGESLFKGPRDYNPISSSICHLTNESDGHTTSLYGIGFGPFIITNKHLFRRNNGTLVVQSLHGVFKVKDTTTLQQHLVDGRDMIISRMPKDFPPFPQKLKFREPQREERICLVTTNFQTKSMSSMVSDTSCTFPSGDGIFWKHWIQTKDGQCGSPLVSTRDGFIVGIHSASNFTNTNNYFTSVPKNFMELLTNQEAQQWVSGWRLNADSVLWGGHKVFMVKPEEPFQPVKEATQL [I86S]: the “area with substrate ENLYCQS” value was 0.0744, the “area with substrate ENLYDQS” value was found to be 0.0507, the “area with substrate ENLYKQS” value is 0.0357 and the “area with substrate ENLYLQS” value is 0.0597. Moreover, the “area with substrate ENLYMQS” value worked out at 0.0858, the “area with substrate ENLYNQS” value was determined as 0.0545, the “area with substrate ENLYQQS” value stood at 0.0649 and the “area with substrate ENLYRQS” value was 0.0488. Moreover, the “area with substrate ENLYWQS” value came to 0.0557 and the “area with substrate ENLYYQS” value was determined as 0.0416.
As to MGESLFKGPRDYNPISSSICHLTNESDGHTTSLYGIGFGPFIITNKHLFRRNNGTLVVQSLHGVFKVKDTTTLKQHLVDGRDMIIIRMPKDFPPFPQKLKFREPQREERICLVTTNFQTKSMSSMVSDTSCTFPSGDGIFWKHWIQTKDGQCGSPLVSTRDGFIVGIHSASNFTNTNNYFTSVPKNFMELLTNQEAQQWVSGWRLNADSVLWGGHKVFMVKPEEPFQPVKEATQL [Q74K], the “area with substrate ENLYCQS” value worked out at 0.0575, the “area with substrate ENLYDQS” value turned out to be 0.0593, the “area with substrate ENLYEQS” value came out at 0.0773 and the “area with substrate ENLYGQS” value was 0.0691. Moreover, the “area with substrate ENLYHQS” value came to 0.0665, the “area with substrate ENLYKQS” value amounted to 0.0576, the “area with substrate ENLYLQS” value was 0.0838 and the “area with substrate ENLYMQS” value stood at 0.0697. Besides, the “area with substrate ENLYPQS” value was determined as 0.0834, the “area with substrate ENLYQQS” value amounted to 0.0568 and the “area with substrate ENLYRQS” value turned out to be 0.0624.
On to MGESLFKGPRDYNPISSSICHLTNESDGHTTSLYGIHFGPFIITNKHLFRRNNGTLVVQSLHGVFKVKDTTTLQQHLVDGRDMIIIRMPKDFPPFPQKLKFREPQREERICLVTTNFQTKSMSSMVSDTSCTFPSGDGIFWKHWIQTKDGQCGSPLVSTRDGFIVGIHSASNFTNTNNYFTSVPKNFMELLTNQEAQQWVSGWRLNADSVLWGGHKVFMVKPEEPFQPVKEATQL [G37H], for which the “area with substrate ENLYCQS” value was 0.0755, the “area with substrate ENLYEQS” value came to 0.0513, the “area with substrate ENLYHQS” value turned out to be 0.0591 and the “area with substrate ENLYKQS” value was determined as 0.0403. Besides, the “area with substrate ENLYNQS” value worked out at 0.0585, the “area with substrate ENLYPQS” value stood at 0.0504, the “area with substrate ENLYQQS” value was 0.0512 and the “area with substrate ENLYWQS” value is 0.0688.
MGESLFKGPRDYNPISSSICHLTNESDGHTTSLYGIGFGPFIITNKHLFRRNNGTLVVQSLHGVFKVKDTTTLQQHLVDGRDMIIISMPKDFPPFPQKLKFREPQREERICLVTTNFQTKSMSSMVSDTSCTFPSGDGIFWKHWIQTKDGQCGSPLVSTRDGFIVGIHSASNFTNTNNYFTSVPKNFMELLTNQEAQQWVSGWRLNADSVLWGGHKVFMVKPEEPFQPVKEATQL [R87S]: the “area with substrate ENLYCQS” value was 0.0647, the “area with substrate ENLYDQS” value turned out to be 0.0634, the “area with substrate ENLYEQS” value was 0.0594 and the “area with substrate ENLYGQS” value is 0.0673. Besides, the “area with substrate ENLYHQS” value stood at 0.0582, the “area with substrate ENLYIQS” value is 0.0827, the “area with substrate ENLYKQS” value was 0.0647 and the “area with substrate ENLYMQS” value came to 0.0714. Besides, the “area with substrate ENLYNQS” value is 0.0716, the “area with substrate ENLYPQS” value is 0.0505, the “area with substrate ENLYRQS” value was 0.0456 and the “area with substrate ENLYVQS” value was 0.0931. In addition, the “area with substrate ENLYWQS” value was determined as 0.0781.
With MGESLFKGPRDYNPISSSICHLTNESDGHTTSLYGIGFGPFIITNKHLFRRNNGTLVVQSLHGVFKVKDKTTLQQHLVDGRDMIIIRMPKDFPPFPQKLKFREPQREERICLVTTNFQTKSMSSMVSDTSCTFPSGDGIFWKHWIQTKDGQCGSPLVSTRDGFIVGIHSASNFTNTNNYFTSVPKNFMELLTNQEAQQWVSGWRLNADSVLWGGHKVFMVKPEEPFQPVKEATQL [T70K], the “area with substrate ENLYCQS” value was 0.0602, the “area with substrate ENLYDQS” value worked out at 0.0598, the “area with substrate ENLYEQS” value turned out to be 0.0355 and the “area with substrate ENLYGQS” value was 0.0575. In addition, the “area with substrate ENLYHQS” value turned out to be 0.0476, the “area with substrate ENLYIQS” value was found to be 0.0642, the “area with substrate ENLYPQS” value came out at 0.057 and the “area with substrate ENLYQQS” value was 0.0611. Besides, the “area with substrate ENLYSQS” value is 0.0751, the “area with substrate ENLYTQS” value amounted to 0.0497 and the “area with substrate ENLYVQS” value came to 0.0603.
For the variant MGESLFKGPRDYNPISSSICHLTNESDGHTTSLYGIGFGPFIITNKHLFRRNNGTLVVQSLHGVHKVKDTTTLQQHLVDGRDMIIIRMPKDFPPFPQKLKFREPQREERICLVTTNFQTKSMSSMVSDTSCTFPSGDGIFWKHWIQTKDGQCGSPLVSTRDGFIVGIHSASNFTNTNNYFTSVPKNFMELLTNQEAQQWVSGWRLNADSVLWGGHKVFMVKPEEPFQPVKEATQL [F65H], the “area with substrate ENLYCQS” value amounted to 0.0894, the “area with substrate ENLYDQS” value was found to be 0.06, the “area with substrate ENLYEQS” value is 0.0837 and the “area with substrate ENLYGQS” value was 0.0546. In addition, the “area with substrate ENLYHQS” value was determined as 0.0504, the “area with substrate ENLYIQS” value was found to be 0.114, the “area with substrate ENLYKQS” value amounted to 0.0704 and the “area with substrate ENLYLQS” value was 0.0892. For the same variant, the “area with substrate ENLYMQS” value is 0.0915, the “area with substrate ENLYNQS” value was determined as 0.0662, the “area with substrate ENLYRQS” value was determined as 0.0611 and the “area with substrate ENLYSQS” value was 0.076. For the same variant, the “area with substrate ENLYVQS” value came to 0.106 and the “area with substrate ENLYYQS” value is 0.0654.
Turning to MGESLFKGPRDYNPISSSICHLTNESDGHTTSLYGIGFGPFIITNKHLFRRNNGTLVVQSLHGVDKVKDTTTLQQHLVDGRDMIIIRMPKDFPPFPQKLKFREPQREERICLVTTNFQTKSMSSMVSDTSCTFPSGDGIFWKHWIQTKDGQCGSPLVSTRDGFIVGIHSASNFTNTNNYFTSVPKNFMELLTNQEAQQWVSGWRLNADSVLWGGHKVFMVKPEEPFQPVKEATQL [F65D], the “area with substrate ENLYCQS” value amounted to 0.0684, the “area with substrate ENLYDQS” value amounted to 0.0479, the “area with substrate ENLYEQS” value came out at 0.0608 and the “area with substrate ENLYHQS” value came to 0.0745. Further, the “area with substrate ENLYKQS” value is 0.0565, the “area with substrate ENLYLQS” value was 0.0677, the “area with substrate ENLYMQS” value was found to be 0.0482 and the “area with substrate ENLYPQS” value was 0.0575. Also, the “area with substrate ENLYQQS” value is 0.0533, the “area with substrate ENLYRQS” value was 0.0506 and the “area with substrate ENLYYQS” value was 0.0574.
